Source: the supplement of paper PMC9446081
The whole screen tested about 39,000 compounds, of which about 220 (0.56%) showed activity. The list shows a part of the results.

The molecules below were run on Escherichia coli K-12 BW25113 (assay: relative growth (OD600 normalised to plate interquartile mean) (fraction); higher = less growth inhibition, active = 0.2 or less). Conditions: 50 µM; LB; incubation time: overnight (16-24 h).
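Also: static incubation at 37 °C against the wild-type strain, values averaged over two biological replicates.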

SMILES | relative growth
C[C@H](CO)N1C[C@H](C)[C@@H](CN(C)C(=O)CN(C)C)Oc2cc(C#Cc3cccnc3)ccc2S1(=O)=O | inactive: 1.02
C[C@H](CO)N1C[C@H](C)[C@@H](CN(C)C(=O)Nc2ccccc2)Oc2c(NS(=O)(=O)c3cn(C)cn3)cccc2C1=O | inactive: 0.949
CC(CCc1ccc(O)cc1)NCC(O)c1ccc(O)cc1.Cl (centres undefined) | inactive: 1.07
Cc1ccc(S(=O)(=O)Nc2ccc3c(c2)CC(=O)N([C@@H](C)CO)C[C@@H](C)[C@H](CN(C)S(=O)(=O)c2ccc(F)cc2)O3)cc1 | inactive: 1.02
Cc1nn2c(N)csc2nc1=O | inactive: 1.02
C[C@H]1CN([C@@H](C)CO)C(=O)Cc2cc(NS(C)(=O)=O)ccc2O[C@H]1CN(C)Cc1ccc2c(c1)OCO2 | inactive: 0.973
C[C@@H]1CCCCO[C@H](CN(C)C(=O)Cc2ccccc2)[C@H](C)CN([C@@H](C)CO)C(=O)c2cc(NC(=O)NC3CCCCC3)ccc2O1 | inactive: 0.999
COc1ccccc1S(=O)(=O)N[C@H]1CC[C@H](CCNC(=O)C2CCOCC2)O[C@@H]1CO | inactive: 1
Cc1cccc(NC(=O)Nc2ccc3c(c2)C(=O)N(C)[C@H]2CC[C@@H](CC(=O)NCc4ccccc4Cl)O[C@@H]2CO3)c1 | inactive: 1.02
COc1cccc(N2CCN(C3=Nc4c(F)cccc4[C@H](CC(=O)O)N3c3cc(C(F)(F)F)ccc3OC)CC2)c1 | inactive: 0.947
C[C@@H]1CCCCO[C@H](CN(C)C(=O)Nc2cccc3ccccc23)[C@H](C)CN([C@@H](C)CO)C(=O)c2cc(NS(C)(=O)=O)ccc2O1 | inactive: 0.984
C[C@@H]1CN([C@@H](C)CO)C(=O)c2cc(NC(=O)C3CC3)ccc2O[C@H]1CN(C)S(=O)(=O)c1ccccc1 | inactive: 1.01
C[C@H](CO)N1C[C@H](C)[C@H](CN(C)C(=O)Nc2cccc3ccccc23)OCCCC[C@H](C)Oc2ccc(NC(=O)CCC(F)(F)F)cc2C1=O | inactive: 0.975
C[C@@H]1CN([C@H](C)CO)S(=O)(=O)c2ccc(C#Cc3ccncc3)cc2O[C@H]1CN(C)C(=O)C1CCCCC1 | inactive: 1.02
Cc1noc(C)c1S(=O)(=O)Nc1ccc2c(c1)C(=O)N([C@H](C)CO)C[C@H](C)[C@@H](CN(C)Cc1ccc(Cl)c(Cl)c1)OCCCC[C@@H](C)O2 | inactive: 0.974
C[C@@H]1CN([C@@H](C)CO)C(=O)c2cc(NS(=O)(=O)c3ccc(F)cc3)ccc2O[C@H]1CN(C)Cc1ccc(Oc2ccccc2)cc1 | inactive: 0.984
C[C@H](CO)N1C[C@H](C)[C@@H](CN(C)C(=O)Nc2ccc(C(F)(F)F)cc2)Oc2ccc(NS(=O)(=O)c3ccc(Cl)cc3)cc2CC1=O | inactive: 0.982
COc1ccc(S(=O)(=O)Nc2ccc3c(c2)[C@@H]2C[C@H](CC(=O)NCC4CC4)O[C@@H](CO)[C@@H]2O3)cc1 | inactive: 0.985
COc1ccc(COC[C@]23NC(=S)N[C@H](c4ccccc4O2)[C@@H]3CO[Si](C)(C)C(C)(C)C)cc1 | inactive: 0.976
C[C@H](CO)N1C[C@H](C)[C@H](CN(C)CC2CC2)Oc2ccc(NS(=O)(=O)c3cn(C)cn3)cc2C1=O | inactive: 1.01

SMILES | relative growth
C[C@@H]1CN([C@H](C)CO)S(=O)(=O)c2ccc(C#Cc3ccccc3)cc2O[C@@H]1CN(C)S(C)(=O)=O | inactive: 1.01
O=C(C[C@@H]1CC[C@@H]2[C@H](COC[C@H](O)CN2S(=O)(=O)c2cccc(F)c2)O1)NCCCN1CCOCC1 | inactive: 1.01
Cc1ccc(S(=O)(=O)N(C)C[C@@H]2OCCCC[C@@H](C)Oc3ccc(NS(=O)(=O)c4ccc(Cl)cc4)cc3C(=O)N([C@H](C)CO)C[C@@H]2C)cc1 | inactive: 0.932
Cc1[nH]c(=O)c(C#N)cc1-c1ccncc1 | inactive: 1.09
COC(=O)C[C@H]1CC[C@H]2[C@@H](COC[C@@H](O)CN2S(=O)(=O)c2cn(C)cn2)O1 | inactive: 1.03
C[C@H](CO)N1C[C@H](C)[C@@H](CN(C)C(=O)Nc2ccccc2)Oc2ccc(NC(=O)Cn3cnnn3)cc2C1=O | inactive: 0.956
NCCC(=O)N[C@@H](Cc1cnc[nH]1)C(=O)O.[Zn+3] | inactive: 1.01
Cc1noc(C)c1NC(=O)Nc1ccc2c(c1)C(=O)N([C@H](C)CO)C[C@H](C)[C@H](CN(C)S(=O)(=O)c1ccc(F)cc1)OCCCC[C@@H](C)O2 | inactive: 0.969
Cc1cc(C(=O)Nc2cccc3c2O[C@@H](CN(C)S(=O)(=O)c2cccs2)[C@H](C)CN([C@@H](C)CO)C3=O)n(C)n1 | inactive: 0.994
CC(C)CC#Cc1ccc2c(c1)O[C@H](CN(C)C(=O)c1cnccn1)[C@@H](C)CN([C@H](C)CO)S2(=O)=O | inactive: 0.96
C[C@H](CO)N1C[C@H](C)[C@@H](CN(C)C(=O)Cc2ccccn2)Oc2ncc(C#CC3CCCCC3)cc2C1=O | inactive: 0.97
Cc1noc(C)c1S(=O)(=O)/N=C/N(C)C | inactive: 1.03
COc1ccc(S(=O)(=O)N(C)C[C@@H]2Oc3ccc(NC(=O)NC(C)C)cc3CC(=O)N([C@@H](C)CO)C[C@H]2C)cc1 | inactive: 1.03
Cc1ccc(S(=O)(=O)Nc2ccc3c(c2)CC(=O)N([C@@H](C)CO)C[C@@H](C)[C@@H](CN(C)Cc2ccc(Oc4ccccc4)cc2)O3)cc1 | inactive: 1.01
COc1ccc(C#Cc2cnc3c(c2)C(=O)N([C@H](C)CO)C[C@@H](C)[C@H](CN(C)C(=O)CN(C)C)O3)cc1 | inactive: 0.991
Cc1ccnc2c1NC(=O)c1cccnc1N2C1CC1 | inactive: 1.07
COCCNC(=O)C[C@@H]1CC[C@@H]2[C@H](COC[C@@H](O)CN2C(=O)Nc2ccc3c(c2)OCO3)O1 | inactive: 0.991
C[C@H](CO)N1C[C@H](C)[C@H](CN(C)S(=O)(=O)c2ccc(F)cc2)OCCCC[C@H](C)Oc2ccc(NC(=O)CCC(F)(F)F)cc2C1=O | inactive: 1.04
O=C(C[C@@H]1CC[C@H]2[C@@H](COC[C@H](O)CN2C(=O)c2cnccn2)O1)NCc1ccc(Oc2ccccc2)cc1 | inactive: 0.982
C[C@H](CO)N1C[C@H](C)[C@@H](CN(C)S(=O)(=O)c2ccc(C(F)(F)F)cc2)OCc2ccccc2-c2ccccc2C1=O | inactive: 1.04

SMILES | relative growth
C[C@@H]1CCCCO[C@@H](CN(C)C(=O)Nc2ccc(C(F)(F)F)cc2)[C@H](C)CN([C@@H](C)CO)C(=O)c2cc(NC(=O)Nc3ccccc3)ccc2O1 | inactive: 1.01
C[C@@H]1CCCCO[C@@H](CN(C)C(=O)Cc2ccccc2)[C@H](C)CN([C@H](C)CO)C(=O)c2cc(NS(=O)(=O)c3ccc(Cl)cc3)ccc2O1 | inactive: 0.973
O=C(Nc1ccn([C@H]2O[C@H](CO)[C@@H](O)[C@@H]2O)c(=O)n1)c1ccccc1 | inactive: 0.945
C[C@H]1CN([C@@H](C)CO)C(=O)Cc2cc(NC(=O)C3CCCCC3)ccc2O[C@@H]1CN(C)Cc1ccc(Oc2ccccc2)cc1 | inactive: 1.03
C[C@@H]1CCCCO[C@@H](CN(C)C(=O)Nc2cccc3ccccc23)[C@H](C)CN([C@@H](C)CO)C(=O)c2cc(NS(=O)(=O)c3ccc(Cl)cc3)ccc2O1 | inactive: 1.01
COc1ccc(S(=O)(=O)Nc2ccc3c(c2)C(=O)N([C@@H](C)CO)C[C@H](C)[C@@H](CN(C)C(=O)NC2CCCCC2)OCCCC[C@H](C)O3)cc1 | inactive: 1.01
COC1C=COC2(C)Oc3c(C)c(O)c4c(O)c(c5c(nc6cc(C)ccn65)c4c3C2=O)NC(=O)C(C)=CC=CC(C)C(O)C(C)C(O)C(C)C(OC(C)=O)C1C (centres undefined) | active: 0.0499
CC(C)NC(=O)N(C)C[C@@H]1Oc2c(NS(=O)(=O)c3ccc(Cl)cc3)cccc2C(=O)N([C@@H](C)CO)C[C@H]1C | inactive: 0.99
CCS(=O)(=O)Nc1ccc2c(c1)C(=O)N(C)[C@@H]1CC[C@H](CC(=O)N3CCN(C)CC3)O[C@@H]1CO2 | inactive: 1
Cc1noc(C)c1NC(=O)Nc1ccc2c(c1)C(=O)N([C@H](C)CO)C[C@@H](C)[C@@H](CN(C)C(=O)C1CCCCC1)OCCCC[C@@H](C)O2 | inactive: 1.01
COc1ccc(NC(=O)Nc2cccc3c2O[C@H](CN(C)S(=O)(=O)c2c(C)noc2C)[C@@H](C)CN([C@H](C)CO)C3=O)cc1 | inactive: 0.994
C#CCN(C)Cc1ccccc1.Cl | inactive: 1.12
CCCCCCCCCCCCCCCCCC(=O)NCCCCOn1c(CCCC)nc2c(N)nc3ccccc3c21 | inactive: 1
C[C@H]1CCCCO[C@H](CN(C)C(=O)Nc2ccc(C(F)(F)F)cc2)[C@@H](C)CN([C@@H](C)CO)C(=O)c2cc(NC(=O)Nc3ccc(F)cc3)ccc2O1 | inactive: 0.986
CCCNC(=O)N1C[C@@H](O)COC[C@H]2O[C@@H](CC(=O)N3CCOCC3)CC[C@@H]21 | inactive: 0.996
C[C@@H]1CN([C@@H](C)CO)C(=O)c2cccc(NS(=O)(=O)c3ccc(Cl)cc3)c2O[C@@H]1CN(C)Cc1ccc(Cl)c(Cl)c1 | inactive: 0.947
C[C@H]1CN([C@@H](C)CO)C(=O)c2cc(C#Cc3ccccn3)cnc2O[C@@H]1CN(C)C(=O)CCN1CCCCC1 | inactive: 0.995
COc1ccc(S(=O)(=O)Nc2ccc3c(c2)C(=O)N([C@@H](C)CO)C[C@@H](C)[C@@H](CN(C)C(=O)Nc2ccc(F)cc2)OCCCC[C@H](C)O3)cc1 | inactive: 1
C[C@@H]1CN([C@@H](C)CO)C(=O)c2cc(NS(C)(=O)=O)ccc2O[C@H]1CN(C)S(=O)(=O)c1cn(C)cn1 | inactive: 0.998
